“And” between values parts separate entries of the source, which are not always exact repeats. Equal entries are not always repeated. The inconclusive results got no clear call from the source; some entries with a clear call stand among them for comparison. Where the call is inconclusive, the potency comes from a doubtful curve fit. The source made the active and inactive calls. The call rests on the fitted dose curve; in most records, active means well fitted cell-killing curve with a large enough effect in the repeat runs; inconclusive means weak or mixed curves, or effect the other way; inactive means flat fitted curve, though single readings scatter.
experiment: qHTS assay to identify small molecule antagonists of the estrogen receptor alpha (ER-alpha) signaling pathway using the BG1 cell line in the presence of 0.1 nM 17-beta-estradiol - cell viability counter screen (AID 1259241); conditions: VM7Luc4E2 (BG1) viability, CellTiter-Fluor protease, 22 h, 0.1 nM estradiol agonist added; series mostly up to 92.4 µM; further: nearly all actives have a fitted effect of over 40% in size
Text: National Center for Advancing Translational Sciences [NCATS]
NIH Chemical Genomics Center [NCGC]
U.S. Environmental Protection Agency [EPA]
National Institutes of Environmental Health Sciences [NIEHS]
National Toxicology Program [NTP]
U.S. Food and Drug Administration [FDA]
Estrogen receptor (ER), a member of the nuclear hormone receptor plays an important role in development, metabolic homeostasis and reproduction. Two subtypes of ER, ER-alpha and ER-beta, have similar expression patterns with some uniqueness in both types. Endocrine disrupting chemicals (EDCs) and their interactions with steroid hormone receptors like ER causes disruption of normal endocrine function. Therefore, it is important to understand the effect of environmental chemicals in ER signaling pathway. For identifying ER antagonists, VM7Luc4E2 cell line was used to screen against Tox21 compound libraries.
VM7Luc4E2 cell line (provided by Denison MS, University of California) endogenously express full-length ER-alpha and is stably transfected with a plasmid containing four estrogen responsive elements (ERE) upstream of a luciferase reporter gene. The current screening for identification of ER-alpha inhibitors against Tox21 compound libraries used lower concentration (0.1 nM) of 17beta-Estradiol as a stimulator. The cytotoxicity of the Tox21 compound libraries against VM7Luc4E2 cell line was tested by measuring live-cell protease activity using CellTiter-Fluor assay in the same wells.
Tox21 Assay Protocol Summary:
VM7Luc4E2 cells were cultured in phenol red free assay medium containing 10% charcoal stripped FBS for 5 days prior to the assay. The cells were dispensed at 4,000 cells/well in 4 uL of assay medium into white wall/solid-bottom 1536-well plates (Corning Life Sciences, Corning, NY) using a Multidrop Combi (ThermoFisher Scientific, Waltham, MA) dispenser. After the assay plates were incubated at 37C and 5% CO2 for 24 hr, 23 nL of compounds dissolved in DMSO, positive controls or DMSO only was transferred to the assay plates by a Pintool station (Kalypsys, San Diego, CA). The transfer of compounds was followed by the addition of 1 uL of 0.1 nM (final concentration) agonist (17beta-Estradiol)/assay medium using a Flying Reagent Dispenser (FRD, Aurora Discovery, San Diego, CA). The plates were incubated at 37C and 5% CO2 for 22 hr. For cytotoxicity assay, 1 uL of CellTiter-Fluor reagent (Promega Corporation, Madison, WI) was added to each well using the FRD and after 30 min incubation at 37C and 5% CO2, The fluorescence intensity was measured using ViewLux plate reader (PerkinElmer, Shelton, CT).
Potency means the concentration at half of the fitted maximal effect; tags describe the fitted curve by direction and shape.

| Compound | Potency |
| --- | --- |
| CC1NCCOC1c1ccccc1 (stereo not drawn) | inactive |
| CN(CCO)CCO | inactive |
| C[N+]1(C)CCCCC1 | inactive |
| OCCCl | inactive |
| Nc1c(Oc2ccccc2)cc(O)c2c1C(=O)c1ccccc1C2=O | inconclusive: 23.7 µM [cytotoxic, partial curve] |
| Nc1ccc([N+](=O)[O-])cc1Cl | inconclusive: 61.1 µM [cytotoxic, partial curve, poor fit] |
| CCCN(CCC)C(=O)Cc1c(-c2ccc(Cl)cc2)nc2ccc(Cl)cn12 | inactive |
| CC(C)(c1ccc(O)c(-c2ccccc2)c1)c1ccc(O)c(-c2ccccc2)c1 | inconclusive: 68.6 µM [cytotoxic, single point] |
| C=C(C)C(=O)OCC(CC)CCCC (stereo not drawn) | inconclusive: 24.8 µM [cytotoxic, full curve] |
| C#CC(O)(C=CCl)CC (stereo not drawn) | inactive |
| CC[n+]1c(-c2ccccc2)c2cc(N)ccc2c2ccc(N)cc21 | active: 30.5 µM and inconclusive: 23.7 µM [cytotoxic, partial curve] |
| Clc1ccc(-c2ccccc2)cc1 | inactive |
| CCNc1nc(NC(C)C(C)C)nc(SC)n1 (stereo not drawn) | inactive |
| O=C1C=CC(=O)c2ccccc21 | active: 19.3 µM |
| CC(C)(C)NCC(O)c1cc(Cl)c(N)c(C(F)(F)F)c1 (stereo not drawn) | inconclusive: 13.3 µM [cytotoxic, partial curve, poor fit] |
| COC(=O)COc1ccc(Cl)cc1Cl | inactive |
| CC(C)=CCN1CC[C@@]2(C)c3cc(O)ccc3C[C@@H]1[C@@H]2C | inconclusive: 12 µM [cytotoxic, full curve] |

| Compound | Potency |
| --- | --- |
| c1cc[n+]2c(c1)-c1cccc[n+]1CC2 | active: 26.6 µM |
| O=C(N/N=C/c1ccc([N+](=O)[O-])o1)c1cc([N+](=O)[O-])cc([N+](=O)[O-])c1O | inconclusive: 10.6 µM [cytotoxic, full curve] |
| O=C1Nc2ccc(Cl)cc2C(c2ccccc2)=NC1O (stereo not drawn) | inactive |
| O=[N+]([O-])c1cccc2c([N+](=O)[O-])cccc12 | inconclusive: 77.4 µM [cytotoxic, single point] |
| S=c1[nH]c2ccccc2[nH]1 | inactive |
| NNCc1ccccc1 | inactive |
| CC(C)(C)NCC(O)c1cc(Cl)c(N)c(Cl)c1 (stereo not drawn) | inconclusive: 10.6 µM [cytotoxic, partial curve] |
| CCS(=O)(=O)c1cccnc1S(=O)(=O)NC(=O)Nc1nc(OC)cc(OC)n1 | inactive |
| Cc1nc2ccccc2c(=O)n1-c1ccccc1Cl | inconclusive: 15 µM [cytotoxic, full curve] |
| CCCSP(=S)(OCC)Oc1ccc(Cl)cc1Cl (stereo not drawn) | inconclusive: 10.9 µM [cytotoxic, partial curve, poor fit] |
| Clc1ccc(C2(Cn3cncn3)CC(Br)CO2)c(Cl)c1 (stereo not drawn) | inconclusive: 60.8 µM [cytotoxic, partial curve, poor fit] |
| COc1cccc2c1cc([N+](=O)[O-])c1c(C(=O)O)cc3c(c12)OCO3 | inconclusive: 48.6 µM [cytotoxic, partial curve] |
| CCc1cc(C)cc(CC)c1-c1c(OC(=O)C(C)(C)C)n2n(c1=O)CCOCC2 | inconclusive: 27.3 µM [cytotoxic, partial curve] |
| CN1C(=S)CN=C(c2ccccc2)c2cc(Cl)ccc21 | inactive |
| Cn1c(-c2ccccc2)cc(-c2ccccc2)[n+]1C | inconclusive: 43.2 µM [cytotoxic, partial curve, poor fit] |
| O=[N+]([O-])c1cccc(CCl)c1 | inactive |
